The whole screen tested about 220,000 compounds, of which about 2,300 (1%) were called active. Inconclusive means that the source gave no clear call. Such entries were picked first, then a sample of the others. Calls follow the shape of the dose curve; as a rule, active = well fitted inhibition curve with a large enough effect; inconclusive = small, poorly fitted or top-dose-only effect, or effect the other way; inactive = no such curve, though single readings can be large or run the other way. Potencies of inconclusive entries are left out as doubtful fits.
Each compound was assayed against Neuropeptide S receptor (Homo sapiens) (UniProt Q6W5P4) (assay: qHTS Assay for Antagonists of the Neuropeptide S Receptor: cAMP Signal Transduction). Conditions: CHO-NPSR cells, cAMP TR-FRET, antagonist mode; activity change, negative = inhibition: at 38.3 µM (top of the series) unless noted.
Sequence of UniProt Q6W5P4 (Q6W5P4 whole entry, looked up): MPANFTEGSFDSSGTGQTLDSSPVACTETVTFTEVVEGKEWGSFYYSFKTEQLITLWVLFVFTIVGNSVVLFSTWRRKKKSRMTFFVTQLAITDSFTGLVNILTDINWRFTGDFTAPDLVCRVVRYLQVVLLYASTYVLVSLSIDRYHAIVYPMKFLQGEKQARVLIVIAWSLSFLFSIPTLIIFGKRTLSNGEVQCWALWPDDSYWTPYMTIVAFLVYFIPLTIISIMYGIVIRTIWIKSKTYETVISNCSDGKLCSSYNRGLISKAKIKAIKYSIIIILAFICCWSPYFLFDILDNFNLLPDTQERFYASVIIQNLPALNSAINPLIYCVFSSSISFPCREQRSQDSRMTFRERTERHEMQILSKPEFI
% is scaled to controls: 0 for no effect and ±100 for the full control effect; potency is read from the fitted curve at half-maximal effect; tags tell the direction and shape of the fitted curve.
Also: nearly all actives have a fitted effect of over 50% in size.

| Structure (SMILES) | Potency | activity change, negative = inhibition |
| --- | --- | --- |
| COc1ccc2nc(C)cc(SCC(=O)NNC(=O)COc3ccc(C)cc3)c2c1 | inconclusive [inhibitor, single point] | – |
| O=C(CSc1ncccn1)Nc1ccc(N2CCOCC2)cc1 | inconclusive [inhibitor, single point] | – |
| Cc1ccccc1C(=O)Nc1ccc(N2CCCCCC2)cc1 | inconclusive [inhibitor, single point] | – |
| CC(=O)N1c2ccccc2Oc2cc3ccccc3cc21 | inconclusive [inhibitor, single point] | – |
| Cc1cc(C)cc(NC(=O)CSc2nnc(-c3ccccc3Br)o2)c1 | inconclusive [inhibitor, single point] | – |
| CCCCN(CCCC)S(=O)(=O)c1ccc(NC(=O)Cc2cccs2)cc1 | inconclusive [inhibitor, single point] | – |
| Cc1cc(/C=C2\C(=N)N3N=C(C(C)C)SC3=NC2=O)c(C)n1Cc1ccccc1 | inconclusive [inhibitor, single point] | – |
| Cc1cccc(C)c1N(CC(=O)Nc1cccc(N(C)S(C)(=O)=O)c1)S(C)(=O)=O | – | inactive: 8.62% [at 46.1 µM] |
| CN(C)/C=C/C(=O)/C=C/c1cn(-c2ncc(C(F)(F)F)cc2Cl)c2ccccc12 | inconclusive [inhibitor, partial curve, poor fit] | – |
| Cc1cc(-c2nnc(-c3cc4ccccc4oc3=O)o2)c(C)n1-c1ccccc1 | inconclusive [inhibitor, partial curve] | – |
| COc1ccc(-c2cn3c(C)c(C(=O)Nc4ccncc4)sc3n2)cc1 | inconclusive [inhibitor, single point] | – |
| O=C(NN=C1C2CC3CC1CC(Cl)(C3)C2)c1ccccn1 | – | inactive: 3.88% |
| CCOC(=O)c1ccc(NC(=O)C2CCCN(S(=O)(=O)c3ccc(F)cc3)C2)cc1 (stereo unspecified) | inconclusive [inhibitor, single point] | – |
| Nc1ccc2c(C(F)(F)F)cc(=O)oc2c1 | inconclusive [activator, partial curve, poor fit] | – |
| CCCN1C(=O)c2[nH]nc(-c3cc(Cl)c(C)cc3O)c2C1c1ccc(O)c(OC)c1 (stereo unspecified) | inconclusive [inhibitor, single point] | – |
| O=C(Nc1nc2ccc(F)cc2s1)c1ccccn1 | – | inactive: -41% |
| CCN(CC)C(=O)c1oc2ccc(S(=O)(=O)N3CCCCCC3)cc2c1C | inconclusive [inhibitor, single point] | – |
| C(=C\c1ccccc1)/C=N/N1CCN(c2ccccn2)CC1 | inconclusive [inhibitor, partial curve] | – |
| O=C(CN1CCN(C/C=C/c2ccccc2)CC1)Nc1cc([N+](=O)[O-])ccc1Cl | – | inactive: 1.37% |
| COC(=O)C(C)Sc1ccc2nnc(-c3ccccc3)n2n1 (stereo unspecified) | – | inactive: -2.34% |
| CCC(C)(C)n1nnnc1CN1CCN(C(c2ccccc2)c2ccccc2)CC1 | inconclusive [inhibitor, single point] | – |
| COc1ccc2nc(NC(=O)CN(c3ccc(C)cc3)S(=O)(=O)c3c(C)nn(C)c3C)sc2c1 | inconclusive [inhibitor, partial curve] | – |
| CS(=O)(=O)N(Cc1ccc(F)cc1)Cc1nc2ccccc2c(=O)[nH]1 | – | inactive: -5.61% [at 46.1 µM] |
| O=S(=O)(C=C(c1ccccc1)c1ccccc1)c1ccccc1 | inconclusive [inhibitor, single point] | – |

| Structure (SMILES) | Potency | activity change, negative = inhibition |
| --- | --- | --- |
| CCCN(CCC)C(=O)CC(c1ccccc1)c1cc(C)ccc1O (stereo unspecified) | inconclusive [inhibitor, single point] | – |
| CC(C)C1Cc2c(sc3[nH]c(=S)n(Cc4ccccc4)c(=O)c23)CO1 (stereo unspecified) | active: 10 µM | – |
| Cn1nc(C(F)(F)F)c(C#N)c1N1CCN(c2ccc(F)cc2)CC1 | – | inactive: -11.4% [at 46.1 µM] |
| CCOc1cccc(CN2CCCC(C(=O)c3cccc(C(F)(F)F)c3)C2)c1O (stereo unspecified) | inconclusive [activator, partial curve] | – |
| Cc1ccc(C2CC(C(F)F)n3ncc(C(=O)Nc4c(C)nn(Cc5c(F)cccc5Cl)c4C)c3N2)cc1 (stereo unspecified) | inconclusive [inhibitor, full curve, poor fit] | – |
| Cn1cccc1/C=N/NC(=O)c1ccn[nH]1 | – | inactive: 5.66% |
| N/C(=N\OC(=O)c1ccc(Cl)c([N+](=O)[O-])c1)c1ccccn1 | – | inactive: -15.4% |
| CCN(CC)CCNC(=O)c1[nH]c2ccc(OCc3ccccc3)cc2c1C | inconclusive [inhibitor, single point] | – |
| CN(C)CCC(c1ccc(Cl)cc1)c1ccccn1 (stereo unspecified) | inconclusive [inhibitor, partial curve] | – |
| COc1cccc(Cn2nnc3c(=O)[nH]c(C4CCCN(C(=O)c5ccccc5Cl)C4)nc32)c1 (stereo unspecified) | inconclusive [inhibitor, single point] | – |
| O=C(Nc1ccc(N2CCOCC2)cc1)c1cc(-c2ccncc2)nc2ccccc12 | inconclusive [activator, single point] | – |
| Cn1ccc(C(=O)N2CCCc3ccccc32)n1 | – | inactive: -3.66% [at 46.1 µM] |
| Cc1ccc(-c2csc3ncnc(Sc4nnc(CN5CCCCCC5=O)o4)c23)cc1 | inconclusive [inhibitor, single point] | – |
| CCOC(=O)c1sc(NC(=O)c2cc(S(=O)(=O)N3CCOCC3)ccc2C)nc1C | inconclusive [inhibitor, partial curve, poor fit] | – |
| O=[N+]([O-])c1ccc(NC2CCN(Cc3ccccc3)CC2)c([N+](=O)[O-])c1 | – | inactive: -19.4% |
| Nc1nc(-c2ccc(Br)s2)c(Br)s1 | – | inactive: -10.5% [at 46.1 µM] |
| COCc1cc(C)nc(SCC(=O)Nc2cccc(C)c2)c1C#N | inconclusive [activator, single point] | – |
| NS(=O)(=O)c1ccc(CCNC(=O)c2cc(-c3ccccn3)nc3ccc(Br)cc23)cc1 | active: 10 µM | – |
| CCO[C@H]1OC(C(=O)N2CCN(Cc3ccc4c(c3)OCO4)CC2)=C[C@@H](c2ccc(C(F)(F)F)cc2)[C@@H]1CCCO | inconclusive [activator, partial curve] | – |
| Cc1ccc(C)c(NC(=O)C2CCCN2C(=O)OC(C)(C)C)c1 (stereo unspecified) | inconclusive [inhibitor, single point] | – |
| Oc1[nH]c2ccccc2c1N=Nc1ccccc1F | – | inactive: 6.5% |
| COc1ccccc1-c1cc(C(F)(F)F)nc(S(=O)(=O)CCCC(=O)NCc2ccc(F)cc2)n1 | inconclusive [inhibitor, single point] | – |
| O=C(O)CNC(=O)c1nc(-c2ccccc2)n(-c2ccccc2)n1 | – | inactive: 15.4% |
| Cc1cc(S(=O)(=O)NCCc2ccccc2)c(C)s1 | inconclusive [inhibitor, partial curve] | – |

| Structure (SMILES) | Potency | activity change, negative = inhibition |
| --- | --- | --- |
| COc1ccccc1C(=O)Nc1nc2ccc(S(C)(=O)=O)cc2s1 | inconclusive [activator, single point] | – |
| Cc1ccc(S(=O)(=O)Cn2nnnc2CN2CCN(C(=O)c3ccco3)CC2)cc1 | – | inactive: -1.54% [at 46.1 µM] |
| CCOC(=O)N1CCN(C(=O)CSc2nnc(-c3ccc(Cl)s3)o2)CC1 | inconclusive [inhibitor, single point] | – |
| Cc1ccc(S(=O)(=O)/N=C2/C=C(Sc3ncn[nH]3)C(=O)c3ccccc32)cc1 | active: 10 µM | – |
| N#Cc1ccccc1OCCOCCNC1CCCC1 | – | inactive: 19.3% |
| Cc1ccc2nc(-c3ccc(SCC(=O)Nc4cc(C)on4)nc3)[nH]c2c1 | inconclusive [inhibitor, partial curve] | – |
| COc1ccc(Nc2ncccc2C(=O)O)cc1 | inconclusive [inhibitor, full curve, poor fit] | – |
| Cc1ccc(CSC2=Nc3ccccc3C3=NC(=O)CN23)cc1 | – | inactive: -12.4% |
| Cc1nn(Cc2ccccc2)c2sc(C(=O)N3CCN(Cc4ccc5c(c4)OCO5)CC3)cc12 | inconclusive [inhibitor, single point] | – |
| COc1ccccc1-c1nnc(Sc2nc([N+](=O)[O-])nn2C)o1 | – | inactive: 3.58% [at 46.1 µM] |
| Cc1nn2c(NC(C)C)c3c(nc2c1-c1ccccc1)CCC3 | inconclusive [activator, partial curve] | – |
| Cn1c(=O)c2c(SCc3c(F)cccc3Cl)nc(CC(C)(C)C)nc2n(C)c1=O | active: 10 µM | – |
| CSc1nc(N(C)NC(=O)c2ccc(Cl)cc2)c2ccccc2n1 | inconclusive [activator, partial curve] | – |
| O=C(Cn1ncc2ccccc21)N1CCc2ccccc21 | – | inactive: -2.15% [at 46.1 µM] |
| CSc1cnc2c(=O)n(C)c(=O)[nH]c2n1 | – | inactive: 4.51% |
| COc1ccc(NC(=O)N2CCC(O)(c3cccnc3)CC2)c(OC)c1 | – | inactive: -11.3% [at 46.1 µM] |
| N#CCSc1nc2c(c(C3CC=CCC3)c1C#N)CCC2 (stereo unspecified) | inconclusive [inhibitor, partial curve] | – |
| O=C(CSc1nnc(-c2ccc(Cl)cc2)n1Cc1ccco1)NCc1ccc2c(c1)OCO2 | inconclusive [inhibitor, single point] | – |
| Cc1cccc(OCCn2c(CCCO)nc3ccccc32)c1 | inconclusive [activator, single point] | – |
| COc1ccc(C(=O)c2oc3ccc(Br)cc3c2NC(C)=O)cc1 | inconclusive [activator, single point] | – |
| O=C(CC1(O)C(=O)Nc2ccccc21)c1ccccc1O (stereo unspecified) | inconclusive [inhibitor, single point] | – |
| COc1cccc(CC2(CO)CCCN(Cc3ccc4c(c3)OCCO4)C2)c1 (stereo unspecified) | – | inactive: 11.1% |
| COc1ccc(OC(=O)c2cccc(S(=O)(=O)N3CCCC3)c2)cc1 | inconclusive [inhibitor, partial curve] | – |
